# This is one part of the list. Binding of human transcription factors and regulators to the viral nucleoprotein by AlphaScreen, crude cell-free proteins, amounts not normalised, one pass. Fold of the Venus control; higher = more signal. No active / inactive call. Single-pass screen; sequences are the whole Swiss-Prot entries looked up by name.
# B1: ZGPAT, Q8N5A5 (protein)
# chain: MDEESLESALQTYRAQLQQVELALGAGLDSSEQADLRQLQGDLKELIELTEASLVSVRKSSLLAALDEERPGRQEDAEYQAFREAITEAVEAPAAARGSGSETVPKAEAGPESAAGGQEEEEGEDEEELSGTKVSAPYYSSWGTLEYHNAMVVGTEEAEDGSAGVRVLYLYPTHKSLKPCPFFLEGKCRFKENCRFSHGQVVSLDELRPFQDPDLSSLQAGSACLAKHQDGLWHAARITDVDNGYYTVKFDSLLLREAVVEGDGILPPLRTEATESDSDSDGTGDSSYARVVGSDAVDSAQSSALCPSLAVVGSDAVDSGTCSSAFAGWEVHTRGIGSRLLTKMGYEFGKGLGRHAEGRVEPIHAVVLPRGKSLDQCVETLQKQTRVGKAGTNKPPRCRGRGARPGGRPAPRNVFDFLNEKLQGQAPGALEAGAAPAGRRSKDMYHASKSAKRALSLRLFQTEEKIERTQRDIRSIQEALARNAGRHSVASAQLQEKLAGAQRQLGQLRAQEAGLQQEQRKADTHKKMTEF
# B2: ZNF577, Q9BSK1 (protein)
# chain: MKNATIVMSVRREQGSSSGEGSLSFEDVAVGFTREEWQFLDQSQKVLYKEVMLENYINLVSIGYRGTKPDSLFKLEQGEPPGIAEGAAHSQICPGFVIQSRRYAGKDSDAFGGYGRSCLHIKRDKTLTGVKYHRCVKPSSPKSQLNDLQKICAGGKPHECSVCGRAFSRKAQLIQHQRTERGEKPHGCGECGKTFMRKIQLTEHQRTHTGEKPHECSECGKAFSRKSQLMVHQRTHTGEKPYRCSKCGKAFSRKCRLNRHQRSHTGEKLYGCSVCGKAFSQKAYLTAHQRLHTGDKPYKCSDCGRTFYFKSDLTRHQRIHTGEKPYECSECEKAFRSKSKLIQHQRTHTGERPYSCRECGKAFAHMSVLIKHEKTHIRETAINSLTVEKPSSRSHTSLYMSELIQEQKTVNTVPIEMPSSGTPPLLNKSERLVGRNVVIVEQPFPRNQAFVVNQEFEQRISLTNEVNVAPSVINYILYLTDIVSE
# B3: TCF3, P15923 (protein)
# chain: MNQPQRMAPVGTDKELSDLLDFSMMFPLPVTNGKGRPASLAGAQFGGSGLEDRPSSGSWGSGDQSSSSFDPSRTFSEGTHFTESHSSLSSSTFLGPGLGGKSGERGAYASFGRDAGVGGLTQAGFLSGELALNSPGPLSPSGMKGTSQYYPSYSGSSRRRAADGSLDTQPKKVRKVPPGLPSSVYPPSSGEDYGRDATAYPSAKTPSSTYPAPFYVADGSLHPSAELWSPPGQAGFGPMLGGGSSPLPLPPGSGPVGSSGSSSTFGGLHQHERMGYQLHGAEVNGGLPSASSFSSAPGATYGGVSSHTPPVSGADSLLGSRGTTAGSSGDALGKALASIYSPDHSSNNFSSSPSTPVGSPQGLAGTSQWPRAGAPGALSPSYDGGLHGLQSKIEDHLDEAIHVLRSHAVGTAGDMHTLLPGHGALASGFTGPMSLGGRHAGLVGGSHPEDGLAGSTSLMHNHAALPSQPGTLPDLSRPPDSYSGLGRAGATAAASEIKREEKEDEENTSAADHSEEEKKELKAPRARTSPDEDEDDLLPPEQKAEREKERRVANNARERLRVRDINEAFKELGRMCQLHLNSEKPQTKLLILHQAVSVILNLEQQVRERNLNPKAACLKRREEEKVSGVVGDPQMVLSAPHPGLSEAHNPAGHM
# B4: ASCL3, Q9NQ33 (protein)
# chain: MMDNRGNSSLPDKLPIFPDSARLPLTRSFYLEPMVTFHVHPEAPVSSPYSEELPRLPFPSDSLILGNYSEPCPFSFPMPYPNYRGCEYSYGPAFTRKRNERERQRVKCVNEGYAQLRHHLPEEYLEKRLSKVETLRAAIKYINYLQSLLYPDKAETKNNPGKVSSMIATTSHHADPMFRIV
# B5: EBF4, Q9BQW3 (protein)
# chain: MFPAQDALPRSGLNLKEEPLLPAGLGSVRSWMQGAGILDASTAAQSGVGLARAHFEKQPPSNLRKSNFFHFVLAMYDRQGQPVEVERTAFIDFVEKDREPGAEKTNNGIHYRLRLVYNNGLRTEQDLYVRLIDSMSKQAIIYEGQDKNPEMCRVLLTHEIMCSRCCDRKSCGNRNETPSDPVIIDRFFLKFFLKCNQNCLKNAGNPRDMRRFQVVVSTTVSVDGHVLAVSDNMFVHNNSKHGRRARRLDPSEAATPCIKAISPGEGWTTGGATVIVIGDNFFDGLQVVFGNVLVWSELITPHAIRVQTPPRHIPGVVEVTLSYKSKQFCKGCPGRFVYTALNEPTIDYGFQRLQKVIPRHPGDPERLPKEVLLKRAADLAEALYGVPGSNQELLLKRAADVAEALYSTPRAPGPLAPLAPSHPHPAVVGINAFSSPLAIAVGDATPGPEPGYARSCSSASPRGFAPSPGSQQSGYGGGLGAGLGGYGAPGVAGLGVPGSPSFLNGSTATSPFAIMPSSPPLAAASSMSLPAAAPTTSVFSFSPVNMISAVKQRSAFAPVLRPPSSPPQACPRAHGEGLPDQSFEDSDKFHSPARGLQGLAYS
# B6: MKL2, Q9ULH7 (protein)
# chain: MIDSSKKQQQGFPEILTAGDFEPLKEKECLEGSNQKSLKEVLQLRLQQRRTREQLVDQGIMPPLKSPAAFHEQIKSLERARTENFLKHKIRSRPDRSELVRMHILEETFAEPSLQATQMKLKRARLADDLNEKIAQRPGPMELVEKNILPVDSSVKEAIIGVGKEDYPHTQGDFSFDEDSSDALSPDQPASQESQGSAASPSEPKVSESPSPVTTNTPAQFASVSPTVPEFLKTPPTADQPPPRPAAPVLPTNTVSSAKPGPALVKQSHPKNPNDKHRSKKCKDPKPRVKKLKYHQYIPPDQKGEKNEPQMDSNYARLLQQQQLFLQLQILSQQKQHYNYQTILPAPFKPLNDKNSNSGNSALNNATPNTPRQNTSTPVRKPGPLPSSLDDLKVSELKTELKLRGLPVSGTKPDLIERLKPYQEVNSSGLAAGGIVAVSSSAIVTSNPEVTVALPVTTLHNTVTSSVSTLKAELPPTGTSNATRVENVHSPLPISPSPSEQSSLSTDDTNMADTFTEIMTMMSPSQFLSSSPLRMTNNEDSLSPTSSTLSNLELDAAEKDRKLQEKEKQIEELKRKLEQEQKLVEVLKMQLEVEKRGQQQRPLEAQPSAPGHSVKSDQKHGSLGSSIKDEASLPDCSSSRQPIPVASHAVGQPVSTGGQTLVAKKAVVIKQEVPVGQAEQQSVVSQFYVSSQGQPPPAVVAQPQALLTTQTAQLLLPVSIQGSSVTSVQLPVGSLKLQTSPQAGMQTQPQIATAAQIPTAALASGLAPTVPQTQDTFPQHVLSQPQQVRKVFTNSASSNTVLPYQRHPAPAVQQPFINKASNSVLQSRNAPLPSLQNGPNTPNKPSSPPPPQQFVVQHSLFGSPVAKTKDPPRYEEAIKQTRSTQAPLPEISNAHSQQMDDLFDILIKSGEISLPIKEEPSPISKMRPVTASITTMPVNTVVSRPPPQVQMAPPVSLEPMGSLSASLENQLEAFLDGTLPSANEIPPLQSSSEDREPFSLIEDLQNDLLSHSGMLDHSHSPMETSETQFAAGTPCLSLDLSDSNLDNMEWLDITMPNSSSGLTPLSTTAPSMFSADFLDPQDLPLPWD
# B7: ARID4A, P29374 (protein)
# chain: MKAADEPAYLTVGTDVSAKYRGAFCEAKIKTVKRLVKVKVLLKQDNTTQLVQDDQVKGPLRVGAIVETRTSDGSFQEAIISKLTDASWYTVVFDDGDERTLRRTSLCLKGERHFAESETLDQLPLTNPEHFGTPVIAKKTNRGRRSSLPVTEDEKEEESSEEEDEDKRRLNDELLGKVVSVVSATERTEWYPALVISPSCNDDITVKKDQCLVRSFIDSKFYSIARKDIKEVDILNLPESELSTKPGLQKASIFLKTRVVPDNWKMDISEILESSSSDDEDGPAEENDEEKEKEAKKTEEEVPEEELDPEERDNFLQQLYKFMEDRGTPINKPPVLGYKDLNLFKLFRLVYHQGGCDNIDSGAVWKQIYMDLGIPILNSAASYNVKTAYRKYLYGFEEYCRSANIQFRTVHHHEPKVKEEKKDLEESMEEALKLDQEMPLTEVKSEPEENIDSNSESEREEIELKSPRGRRRIARDVNSIKKEIEEEKTEDKLKDNDTENKDVDDDYETAEKKENELLLGRKNTPKQKEKKIKKQEDSDKDSDEEEEKSQEREETESKCDSEGEEDEEDMEPCLTGTKVKVKYGRGKTQKIYEASIKSTEIDDGEVLYLVHYYGWNVRYDEWVKADRIIWPLDKGGPKKKQKKKAKNKEDSEKDEKRDEERQKSKRGRPPLKSTLSSNMPYGLSKTANSEGKSDSCSSDSETEDALEKNLINEELSLKDELEKNENLNDDKLDEENPKISAHILKENDRTQMQPLETLKLEVGENEQIVQIFGNKMEKTEEVKKEAEKSPKGKGRRSKTKDLSLEIIKISSFGQNEAGSEPHIEAHSLELSSLDNKNFSSATEDEIDQCVKEKKLKRKILGQSSPEKKIRIENGMEMTNTVSQERTSDCIGSEGMKNLNFEQHFERENEGMPSLIAESNQCIQQLTSERFDSPAEETVNIPLKEDEDAMPLIGPETLVCHEVDLDDLDEKDKTSIEDVAVESSESNSLVSIPPALPPVVQHNFSVASPLTLSQDESRSVKSESDITIEVDSIAEESQEGLCERESANGFETNVASGTCSIIVQERESREKGQKRPSDGNSGLMAKKQKRTPKRTSAAAKNEKNGTGQSSDSEDLPVLDNSSKCTPVKHLNVSKPQKLARSPARISPHIKDGEKDKHREKHPNSSPRTYKWSFQLNELDNMNSTERISFLQEKLQEIRKYYMSLKSEVATIDRRRKRLKKKDREVSHAGASMSSASSDTGMSPSSSSPPQNVLAVECR
# B8: MYRF, Q9Y2G1 (protein)
# chain: MEVVDETEALQRFFEGHDINGALEPSNIDTSILEEYISKEDASDLCFPDISAPASSASYSHGQPAMPGSSGVHHLSPPGGGPSPGRHGPLPPPGYGTPLNCNNNNGMGAAPKPFPGGTGPPIKAEPKAPYAPGTLPDSPPDSGSEAYSPQQVNEPHLLRTITPETLCHVGVPSRLEHPPPPPAHLPGPPPPPPPPPHYPVLQRDLYMKAEPPIPHYAAMGQGLVPTDLHHTQQSQMLHQLLQQHGAELPTHPSKKRKHSESPPSTLNAQMLNGMIKQEPGTVTALPLHPTRAPSPPWPPQGPLSPGPGSLPLSIARVQTPPWHPPGAPSPGLLQDSDSLSGSYLDPNYQSIKWQPHQQNKWATLYDANYKELPMLTYRVDADKGFNFSVGDDAFVCQKKNHFQVTVYIGMLGEPKYVKTPEGLKPLDCFYLKLHGVKLEALNQSINIEQSQSDRSKRPFNPVTVNLPPEQVTKVTVGRLHFSETTANNMRKKGKPNPDQRYFMLVVALQAHAQNQNYTLAAQISERIIVRASNPGQFESDSDVLWQRAQVPDTVFHHGRVGINTDRPDEALVVHGNVKVMGSLMHPSDLRAKEHVQEVDTTEQLKRISRMRLVHYRYKPEFAASAGIEATAPETGVIAQEVKEILPEAVKDTGDMVFANGKTIENFLVVNKERIFMENVGAVKELCKLTDNLETRIDELERWSHKLAKLRRLDSLKSTGSSGAFSHAGSQFSRAGSVPHKKRPPKVASKSSSVVPDQACISQRFLQGTIIALVVVMAFSVVSMSTLYVLSLRTEEDLVDTDGSFAVSTSCLLALLRPQPPGGSEALCPWSSQSFGTTQLRQSPLTTGLPGIQPSLLLVTTSLTSSAPGSAVRTLDMCSSHPCPVICCSSPTTNPTTGPSLGPSFNPGHVLSPSPSPSTNRSGPSQMALLPVTNIRAKSWGLSVNGIGHSKHHKSLEPLASPAVPFPGGQGKAKNSPSLGFHGRARRGALQSSVGPAEPTWAQGQSASLLAEPVPSLTSIQVLENSMSITSQYCAPGDACRPGNFTYHIPVSSGTPLHLSLTLQMNSSSPVSVVLCSLRSKEEPCEEGSLPQSLHTHQDTQGTSHRWPITILSFREFTYHFRVALLGQANCSSEALAQPATDYHFHFYRLCD
# Molecular target: nucleoprotein N of Crimean-Congo hemorrhagic fever virus
# Assay: AlphaScreen luminescence signal relative to Venus negative control (fold); higher = stronger binding to CCHFV N
# Method: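 AlphaScreen binding of cell-free made, FLAG-GST-tagged human transcription factors and regulators (crude translation products) to biotinylated N protein; signal as fold of the FLAG-GST-Venus control. One pass.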
row,Binder,AlphaScreen luminescence signal
1,B1,2.56
2,B2,4.23
3,B3,1.35
4,B4,1.81
5,B5,2.23
6,B6,2.47
7,B7,1.95
8,B8,2.7
